Measurements published in the supplement of paper PMC11417369.
The list shows a part of the results.

Each sequence was assayed on PF3D7_0420300 AP2 domain 1 (GST-tagged) (assay: gcPBM binding intensity (ln(normalized median fluorescence intensity)); higher = stronger DNA binding).
Outline: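 GST-fused DNA-binding domains of P. falciparum, expressed in E. coli, were applied at about 25 μg on average for 1 h to an Agilent 4 × 180k array of primer-extended double-stranded 36-bp intergenic genomic probes and negative controls. Binding intensity is the highest Masliner-normalised natural-log median intensity across replicate spots of either probe orientation, measured with Alexa488 anti-GST antibody and a 488 nm scan.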

| Sequence | gcPBM binding intensity (ln) |
| --- | --- |
| CGTATGCAAGGAACCACACACACACCCATAAATGTA [CACACA_site749] | 9.91 |
| AAAAAATAGACATATACACACATATGTATTTATAAT [CACACA_site5225] | 9.66 |
| AATATAATAATAAAAACACACACGTTGATTGTATTA [CACACA_site2381] | 9.71 |
| TAAAAATTCAATTGCACACGCACATATTTTAATAAG [CACACA_site2014] | 9.21 |
| ATTTCATATAGTGTAGTGCAATTTTAAGCATCAAGG | 9.24 |
| CCTATAATAAATAATACACACATATTGTAAATATAT [CACACA_site7496] | 9.6 |
| ATGTCATTATATACATGTACGCATATCTGTTTATCC [XGTACX_site3947] | 9.38 |
| TTAAAAATAAAAAATACACACTCTAGTCCATGTAAC [CACACA_site3640] | 9.48 |
| TTTTTTTTTATAAGGTGTACGTAAAATGTGTAGGTC [XGTACX_site3585] | 9.27 |
| CACACTAAAAGACACACACACACACGCATATAAATA [CACACA_site7874] | 10.2 |
| AAATATATATATATATGTACACACACACATATAAAT [XGTACX_site847] | 10.1 |
| TTGTAGGAATTTATTTTGACTGATAATTAATACGTT [GTGCAC_negctrl_site46] | 9.13 |
| TAGTGTAAAAAATACGCATGTGTACAAATATAATAA [TGCATGCA_site498] | 9.47 |
| AATAATACGTTAAATGTTCTTACAAGTTGGTTTCAT [CACACA_negctrl_site1029] | 9.24 |
| TAAAGGTGTAAAACTGCATGCTGGAGAAAAGTAAAA [TGCATGCA_site591] | 9.36 |
| AAAAAAAAATTTGTATCACACACGTATTATAAAAAA [CACACA_site6] | 9.25 |
| ATTATATAATATAATGCATGTGTTAATGAAAAATCT [TGCATGCA_site426] | 9.24 |
| AAAAAAAAAAAAAAGTGTACCTTATTATACTTTAAT [XGTACX_site8439] | 9.05 |
| ATAATTTTTATTTGTACACACATACAGATATATTAT [CACACA_site4701] | 9.55 |
| GATATGTACTAATACACACACATATATATATATATA [CACACA_site1022] | 9.81 |
| GATATAGATATTAATTGTACATATTATTTATTGTTA [XGTACX_site846] | 9.33 |
| TTCTAAAAAGGGTGTACACAAACGAATGGAAAATAA [CACACA_site5483] | 9.45 |

| Sequence | gcPBM binding intensity (ln) |
| --- | --- |
| TATATATATATAATATGTACATATATATATTCTTAA [XGTACX_site6154] | 9 |
| ATAATTCATGTTTAGTGTACAAAAAATTAAAGCAAC [XGTACX_site8891] | 9.48 |
| AAATAATTTATATGTAGTACATGTTGTAGATAATTT [XGTACX_site1031] | 9.31 |
| TGATTATATAAAAAAAAGAAAAAAAAAAAAAAAAAA [CACACA_negctrl_site819] | 8.77 |
| ATGCATCATTTATTTGCACACCTATTATATACTTTT [CACACA_site2097] | 9.59 |
| TTATGATAACTTTGCACACACTTAGGAAAAGTTATG [CACACA_site6836] | 9.39 |
| CAAAGCATTTTATCTACACACATATATAAATAAATA [CACACA_site7500] | 9.47 |
| ATCTTTATTTTTAGCGCACACATAAAATAATAATAA [CACACA_site3458] | 9.21 |
| TATTTTAACTTTTTTTCCTTTATTCATTTTTTTTTC [CACACA_negctrl_site971] | 9.37 |
| TTTTTTTTTTTATGTGCACACAAAAGATGCTTATAT [CACACA_site2347] | 9.3 |
| TGATGCAAGATATATACACACATATAAATATAAATA [CACACA_site7429] | 9.58 |
| TAAAGAGTCATGTGGTGTACCTGCTTCACCACATAT [XGTACX_site1288] | 9.03 |
| TATATATTCATAAAGTGTACATGTTTATATATATAT [XGTACX_site7585] | 9.2 |
| TTATTTTTAATATCGGTGCAACAAAAAGGAAAAGAT [GTGCAC_site9482] | 9.48 |
| TATGTATAGATATATACACACTTCTGTGATACGAAA [CACACA_site7003] | 9.26 |
| ATATGTACATATCTCATGCACTTAACAAAAAAAAAG [GTGCAC_site9898] | 8.95 |
| TAATTTGTTAAAGGTTCACATATGGTATATACTTCT [XGTACX_negctrl_site292] | 9.41 |
| TAATAAGGTTACAACAAACACACAAAGGAATATACA [CACACA_site4089] | 9.91 |
| GATATGATTAACTTATGTTATTCTTGATGGTTTCTT [GTGCAC_negctrl_site411] | 9.49 |
| TATCACAAAATATACTGTACATACAGGCAGTAATAT [XGTACX_site2487] | 9.29 |
| TTATAAAACCATGTCATCAACATAGGCACAAAAATG [CACACA_negctrl_site1160] | 9.31 |
| AAGAATCACCAAATATGTACACACCTTAACATGTTT [XGTACX_site4272] | 9.54 |

| Sequence | gcPBM binding intensity (ln) |
| --- | --- |
| CCACTGTATGAATGCACACATTCATAGAATTGCTAT [CACACA_site2676] | 9.24 |
| CCATAGATATTTTATACACACATATAATATATTAAT [CACACA_site373] | 9.44 |
| GATGATTCAATTTATGCACACTAAAAATTAATTATA [CACACA_site4308] | 9.2 |
| ACCAAAAGGGGATGTAGTACAATATGATTAGAAGAA [XGTACX_site3773] | 9.33 |
| ATAATCTGACAAATGTGTACACATATATATATATAT [XGTACX_site2379] | 9.42 |
| AAATAATATATTCCTTGTACTTATTTCAATGAATTC [XGTACX_site7719] | 9.21 |
| AAAATACCCGGACACACACACATATATATATATATT [CACACA_site6137] | 9.96 |
| TAACTTCAAACAAAATATGGTAAAAGTGGTTGAAAA [CACACA_negctrl_site42] | 9.26 |
| ATACATATATAATTATGTACGTATATTTTATATAAC [XGTACX_site4292] | 9.33 |
| ATGAATAAAAAAGGTGGTACATATATATATATATAT [XGTACX_site7893] | 9.33 |
| TGTCTTGTAAATTATTGTACTATTTAAAGTATAAAA [XGTACX_site7863] | 8.87 |
| AAAATAATATAAATAATATAAGTGAGCATATATATA [TGCATGCA_negctrl_site527] | 9.39 |
| AATAAAATTTGCGATGCACACAGAATAGCTAATATG [CACACA_site8983] | 9.52 |
| TTATTTTACTTTTATGCAACTAAAAATATTGCTATA [XGTACX_negctrl_site277] | 9.18 |
| ATATTCAATTCATACACACACAATTTAAGAATGATA [CACACA_site3883] | 9.76 |
| CATATAGATTTGTTCACACACACACTAAAAAAAAAA [CACACA_site7212] | 9.92 |
| ACAAATGTGAGAAAGACACACATATAATAAAAAACA [CACACA_site1156] | 9.55 |
| AAAAAAAAAATATTTGAACACACGAGGATATATAAA [CACACA_site139] | 9.52 |
| TATATTTAATTATTTTGTACTCATATAAAGATGATG [XGTACX_site5488] | 9.04 |
| TACAGACATACATACACACATACATACAGACATACA [CACACA_site1941] | 9.79 |
| TACATATTTACTATCACACACACGATATAAATAAAT [CACACA_site6701] | 9.92 |
| CATATATACCTATATACACACATATAGATTTATATA [CACACA_site6451] | 9.35 |

| Sequence | gcPBM binding intensity (ln) |
| --- | --- |
| TTATTCTACATATATGCATGTGTATGATCTGTTTAT [TGCATGCA_site782] | 9.42 |
| AAAATAAAAAAAATGTAAAAGGTTAAAGTGAAATAT [CACACA_negctrl_site350] | 9.68 |
| ATATAAATGATATGTACACACATTTATATATATAAA [CACACA_site3475] | 9.41 |
| TGATATTATCTCTTCACACACTCACATACAGACAAA [CACACA_site1246] | 9.37 |
| TAAAAATTAAAATGTTGTACAATGATAAAATATTAT [XGTACX_site7874] | 9.31 |
| TATTTGATAAAAAAAAGTACTAGAATTTCGCTTTTG [XGTACX_site7754] | 9.07 |
| ATTTATTTATATACAAGTACATAAAAAATTAACTTA [XGTACX_site6170] | 8.88 |
| AAATTATAAAATAACTGTACCAATCCTTTTTTTTTA [XGTACX_site2229] | 9.01 |
| TAAATTGAAATATATTGTACATTATCAACTAAGGGA [XGTACX_site1635] | 9.18 |
| CTCAACATATACGTAACACACATATAAATATAAATA [CACACA_site7749] | 9.51 |
| TGTAGTCTGGAGAAAAGTACATAGTATCTGGTAACA [XGTACX_site4940] | 9.2 |
| TTTTAATTTTAAAAATGTACTTTTATTATTTTTAAT [XGTACX_site8300] | 9 |
| AAATAGTTAAAAAGGCGTACACATAAATAAATAAAT [XGTACX_site2096] | 9.66 |
| TATTATATGTAGTTGAGTACATATAAATACATATAT [XGTACX_site7933] | 9.1 |
| AATCTAATATAATGCACACATAAAAAAAAATCAAAC [CACACA_site3633] | 9.8 |
| CCTCCATTAGATACTTGTACATAAAAGTTTTGATTG [XGTACX_site7428] | 9.14 |
| AATCATAAAATCATATGTACACATTTTTCCTATGAT [XGTACX_site8799] | 9.36 |
| AGACTTTGTACAAACACACACATGAACACAATATTA [CACACA_site1360] | 9.85 |
| ATTTTATTAATTTGGTGTACTTAATTTATATTTTTC [XGTACX_site4947] | 9.41 |
| AAAAAAAAAAAATAATAAATAAATAAAAATAAATGA [CACACA_negctrl_site1623] | 9.29 |
| ATATTTAAAAAAGAGTGTACTCATCTCTTTTAAAAA [XGTACX_site1160] | 8.89 |
| GTGTATTTATGTTATACACACAAAAATATTTTGTAT [CACACA_site4305] | 9.5 |
